In PMC9911399, “Two distinct binding modes provide the RNA-binding protein RbFox with extraordinary sequence specificity”:
Residue numbers refer to the chain shown, from its start. This is one part of the list.

T1: RBFOX1 RRM (Homo sapiens, UniProt Q9NWB1 109-208)
T1 sequence: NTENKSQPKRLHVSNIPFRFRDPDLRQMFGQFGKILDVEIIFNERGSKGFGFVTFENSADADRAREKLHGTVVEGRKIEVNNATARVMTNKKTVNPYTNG

B1: CGCUCAC (DNA:RNA)
RNA: GGGAGACCGGAAUUCAGAUUGUCCCGCUCACUUAAAUCCCGUCGUAGCCACCA
DNA 1: CAATCTGAATTCCGGTCTCCC
DNA 2: TGGTGGCTACGACGGGATT
B2: GCGGUCA (DNA:RNA)
RNA: GGGAGACCGGAAUUCAGAUUGUCCGCGGUCAUUAAAUCCCGUCGUAGCCACCA
DNA 1: CAATCTGAATTCCGGTCTCCC
DNA 2: TGGTGGCTACGACGGGATT
B3: UGAGUUG (DNA:RNA)
RNA: B2 RNA with G25U, C26G, G27A, C30U, A31G
DNA 1: CAATCTGAATTCCGGTCTCCC
DNA 2: TGGTGGCTACGACGGGATT
B4: UUUGGCC (DNA:RNA)
RNA: B2 RNA with G25U, C26U, G27U, U29G, A31C
DNA 1: CAATCTGAATTCCGGTCTCCC
DNA 2: TGGTGGCTACGACGGGATT
B5: GACGUUA (DNA:RNA)
RNA: B2 RNA with C26A, G27C, C30U
DNA 1: CAATCTGAATTCCGGTCTCCC
DNA 2: TGGTGGCTACGACGGGATT
B6: GGACCAG (DNA:RNA)
RNA: B1 RNA with C25G, C27A, U28C, C31G
DNA 1: CAATCTGAATTCCGGTCTCCC
DNA 2: TGGTGGCTACGACGGGATT
B7: AUGGUUU (DNA:RNA)
RNA: B2 RNA with G25A, C26U, C30U, A31U
DNA 1: CAATCTGAATTCCGGTCTCCC
DNA 2: TGGTGGCTACGACGGGATT
B8: ACGACAA (DNA:RNA)
RNA: B2 RNA with G25A, G28A, U29C, C30A
DNA 1: CAATCTGAATTCCGGTCTCCC
DNA 2: TGGTGGCTACGACGGGATT
B9: UAGGACU (DNA:RNA)
RNA: B2 RNA with G25U, C26A, U29A, A31U
DNA 1: CAATCTGAATTCCGGTCTCCC
DNA 2: TGGTGGCTACGACGGGATT

Each binder was assayed against T1, RBFOX1 RRM (assay: EMSA; HiTS-Eq, 1 nM pool, 10 min; buffer printed only for the single-RNA assays: 10 mM Tris pH 7.5, 150 mM NaCl, 3.4 mM EDTA, 0.001% NP-40, 30 C). Conditions: tags: His6 N-terminal (pET28a); label: 5' 32P.
Outline: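 These values rest on relative association constants, computed from read-count changes of each RNA species versus the control reaction and normalised to the cognate motif. Reads came from free RNA recovered by 8% native PAGE after purified RbFox RRM (wild type or mutant) at increasing concentrations was equilibrated for 10 min in 50 µL with 1 nM of a 5′-radiolabelled pool with 7 randomized nucleotides and DNA-annealed flanks.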

First: B1
Second: B2
The binding signal of the first is lower: 0.00648 KA relative to UGCAUGU for the first, 0.00871 KA relative to UGCAUGU for the second.

Compared with B3, B4 is lower in binding signal: 0.0276 KA relative to UGCAUGU for the first, 0.0184 KA relative to UGCAUGU for the second.

First: B5
Second: B6
The binding signal of the first is lower: 0.00849 KA relative to UGCAUGU for the first, 0.0132 KA relative to UGCAUGU for the second.

First: B7
Second: B8
The binding signal of the first is higher: 0.0146 KA relative to UGCAUGU for the first, 0.0016 KA relative to UGCAUGU for the second.

In the case of B9, the binding signal is reported as 0.00165 KA relative to UGCAUGU.
